For one test, the target named is T1, GST-Nek9 810–828 (human) (UniProt Q8TD19).
T1 sequence: GWLRKELENAEFIPMPDSP
Nature of the test: pull-down; GST co-precipitation: 100 μg GST-Nek9 protein immobilised on glutathione sepharose-4B beads, incubated with 100 μg Nek7 in 500 μl for 1 h at 4 °C; 50 mM HEPES pH 7.5, 300 mM NaCl, 5% glycerol, 5 mM dithiothreitol, 0.05% Tween-20; Coomassie staining or immunoblot with α-His6; both ….

Chains of the proteins cited; added tags and fusions are not shown. Lines headed by an entry give the natural chain unless they say otherwise; changes in a name come on top.
UniProt Q8TDX7: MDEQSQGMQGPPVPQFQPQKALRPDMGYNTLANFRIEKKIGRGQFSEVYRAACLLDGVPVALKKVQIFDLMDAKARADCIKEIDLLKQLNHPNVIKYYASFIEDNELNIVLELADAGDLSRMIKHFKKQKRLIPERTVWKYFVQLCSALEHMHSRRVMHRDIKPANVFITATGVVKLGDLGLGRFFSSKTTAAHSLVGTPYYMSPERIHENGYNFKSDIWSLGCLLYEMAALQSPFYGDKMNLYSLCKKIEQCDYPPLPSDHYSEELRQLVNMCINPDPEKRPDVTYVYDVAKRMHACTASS

The target in test [1] is T2, GST-Nek9-CTD (aa 726–979) (human) (UniProt Q8TD19).
T2 sequence: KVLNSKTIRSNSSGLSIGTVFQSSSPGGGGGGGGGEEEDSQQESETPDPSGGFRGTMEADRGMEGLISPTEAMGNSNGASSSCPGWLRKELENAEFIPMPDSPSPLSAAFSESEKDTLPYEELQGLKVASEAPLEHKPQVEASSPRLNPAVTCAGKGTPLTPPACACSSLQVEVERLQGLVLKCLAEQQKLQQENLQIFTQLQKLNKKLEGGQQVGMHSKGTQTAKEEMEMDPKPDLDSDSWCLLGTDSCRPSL
The description is as above.

Test [2] has as its target T3, GST-Nek9-CTD C808A (human) (UniProt Q8TD19).
T3 sequence: T2 sequence with C83A
The description is as above.

For test [3], the target named is T4, GST-Nek9-CTD L812A (human) (UniProt Q8TD19).
T4 sequence: T2 sequence with L87A
Described as above.

The target in test [4] is T5, GST-Nek9-CTD I822A (human) (UniProt Q8TD19).
T5 sequence: T2 sequence with I97A
Described as above.

For test [5], the target named is T6, GST-Nek9-CTD M824A (human) (UniProt Q8TD19).
T6 sequence: T2 sequence with M99A
The test is described as above.

Test [6] addresses T7, GST-Nek9-CTD P809A (human) (UniProt Q8TD19).
T7 sequence: T2 sequence with P84A
Described as above.

Test [7] deals with T8, GST-Nek9-CTD L816A (human) (UniProt Q8TD19).
T8 sequence: T2 sequence with L91A
Described as above.

The target in test [8] is T9, GST-Nek9-CTD W811A (human) (UniProt Q8TD19).
T9 sequence: T2 sequence with W86A
Described as above.

Test [9] deals with T10, GST-Nek9-CTD P825A (human) (UniProt Q8TD19).
T10 sequence: T2 sequence with P100A
Described as above.

The target of test [10] is T11, GST-Nek9-CTD F821A (human) (UniProt Q8TD19).
T11 sequence: T2 sequence with F96A
The test is described as above.

The target of test [11] is Nek7^Y97A, full length (human) (UniProt Q8TDX7). Nature of the test: SEC; size-exclusion chromatography on purification (Superdex-200 16/60, 50 mM HEPES pH 7.5, 300 mM NaCl, 5% glycerol, 5 mM dithiothreitol); both purified.

Substitutions are numbered along the chain they refer to. These are yes or no findings as the source states them, for the method shown. Some entries that bind do so weakly or less than the wild type. For some assays here: Where a sequence is shown, tags or fusion partners need not be part of it.

“Nek7 L132D (from UniProt Q8TDX7 1-302) (enzyme)”: the binding result (in the test with GST-Nek9 810–828 (human); in [1]) was “no binding (tested: 100 μg Nek7 in 500 μl buffer)” throughout.

Consider “Nek7 R131A (from UniProt Q8TDX7 1-302) (enzyme)”, for which the binding result (in the test with GST-Nek9 810–828 (human); in test [1]) was “no binding (tested: 100 μg Nek7 in 500 μl buffer)” each time.

For the substance “Nek7-His6, full-length wild type, unphosphorylated (from UniProt Q8TDX7 1-302) (enzyme)”, the binding entry in test [2] was “binds”; in test [3] it was “no binding (tested: 100 μg Nek7 in 500 μl buffer)”; in test [4], “no binding (tested: 100 μg Nek7 in 500 μl buffer)”; in test [5], “binds”; in test [6], “no binding (tested: 100 μg Nek7 in 500 μl buffer)”; in test [7] it was “no binding (tested: 100 μg Nek7 in 500 μl buffer)”. Moreover, the figures for the binding entry in [8], in test [9] and in [10] were “no binding (tested: 100 μg Nek7 in 500 μl buffer)”, “binds” and “no binding (tested: 100 μg Nek7 in 500 μl buffer)”, respectively.

With “Nek7^Y97A, full length (from UniProt Q8TDX7 1-302) (enzyme)”, the binding entry in test [11] is given as “no binding”.

For the origin of these results see publication PMC4632185.
